Experimental data published in the supplement of paper PMC12340641.
Whole data set: some 1,000 compounds, median “relative growth recovery (pomalidomide 10 uM = 100%, DMSO = 0%)” near -1.6, cut for the highest 2% near 21. This is one part of the list.

Test system: HEK293FT dCK*-IKZF1
Experiment: relative growth recovery (pomalidomide 10 uM = 100%, DMSO = 0%); higher = more growth rescue (IKZF1 fusion degradation)
Settings: compound concentration: 5 uM; AraC concentration: 0.3 uM; overnight pretreatment + 4 days AraC
Experimental: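 Growth recovery screen of the molecular-glue-like (Specs) library. HEK293FT cells expressing a dCK*-IKZF1 fusion (primary) or dCK* alone (counter) were pretreated overnight with compound at 5 uM, then given 0.3 uM AraC for 4 days. Hoechst nuclei were counted by imaging. Primary: normalised to pomalidomide (100%) and DMSO (0%), mean of 2 replicates. Counter: normalised to no-AraC (100%) and AraC+DMSO (0%), single replicate.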

Row | SMILES | relative growth recovery [%]
1 | CCCc1cnc(Nc2cccc(C3CN(C(=O)C4CCCCC4)CCO3)n2)s1 (stereo unspecified) | -7.63
2 | CCC(=O)Nc1ccc(S(=O)(=O)Nc2nccc(C)n2)cc1 | -1.14
3 | Cc1ccc(/C=C/C(=O)Nc2ccc(S(=O)(=O)Nc3ncccn3)cc2)cc1 | -2.17
4 | O=C(Nc1ccc(S(=O)(=O)Nc2ncccn2)cc1)C1CC(=O)N(c2ccccc2)C1 (stereo unspecified) | -18.9
5 | Nc1ccc(Oc2ccc3c(c2)C(=O)N(CCO)C3=O)cc1 | 2.76
6 | Cc1ccc(Nc2nc(C3CCCN(C(=O)/C=C/c4csc(C)n4)C3)cs2)nc1 (stereo unspecified) | 31.5
7 | CC(C)(N)C(=O)N1CCC(c2cccc(Nc3ncc(CC(F)(F)F)s3)n2)CC1 | -18
8 | Cc1nc(Nc2cccc(C3CCN(C(=O)CCC4NC(=O)NC4=O)CC3)n2)sc1C (stereo unspecified) | 2.9
9 | COc1ccc(NS(=O)(=O)c2ccc(NS(=O)(=O)c3ccccc3)cc2)nn1 | -7.91
10 | Cc1cnc(Nc2cccc(C3CN(C(=O)C45CC6CC(CC(O)(C6)C4)C5)CCO3)n2)s1 (stereo unspecified) | -2.49
11 | Cc1cnc(Nc2cccc(C3CCN(C(=O)[C@H]4CCCC[C@H]4C(=O)N(C)C)CC3)n2)s1 | -13.9
12 | COc1cc(CN2CCCC2c2cccc(Nc3nccs3)n2)ccc1OCC(N)=O (stereo unspecified) | -1.38
13 | COc1ccc(Br)cc1/C=N/NS(=O)(=O)c1ccccc1 | -16.9
14 | Nc1ccc(C(=O)N2CCCC2c2cccc(Nc3nccs3)n2)cn1 (stereo unspecified) | -0.685
15 | O=C(Nc1ccc(S(=O)(=O)Nc2ccccn2)cc1)c1ccc(Cl)cc1Cl | 0.76
16 | Cc1ccnc(NS(=O)(=O)c2ccc(NC(=O)C34CC5CC(CC(C5)C3)C4)cc2)n1 | -6.07
17 | Cc1nc(Nc2cccc(C3CCCN3C(=O)c3cc4ccc(F)cc4[nH]3)n2)sc1C (stereo unspecified) | 11.2
18 | Cc1cnc(Nc2cccc(C3CCCN3C(=O)CCn3c(=O)oc4ccccc43)n2)s1 (stereo unspecified) | -19
19 | Cc1csc(Nc2cccc(C3CN(C(=O)CCOc4ccccc4C)CCO3)n2)n1 (stereo unspecified) | 62.8
20 | CCCCc1cnc(Nc2cccc(C3CCN(C(=O)[C@@H]4CCCN4CCO)CC3)n2)s1 | -3.96
21 | Cc1cnc(Nc2cccc(C3CCN(CC(N)=O)CC3)n2)s1 | -19.2
22 | CCc1nnsc1C(=O)N1CCCC1c1cccc(Nc2nccs2)n1 (stereo unspecified) | 2.19
23 | Cc1cc(NS(=O)(=O)c2ccc(NC(=O)COc3ccc(C(C)C)cc3)cc2)nc(C)n1 | 1.72
24 | O=C(Nc1ccc(S(=O)(=O)Nc2ccccn2)cc1)c1cccs1 | -0.55

Row | SMILES | relative growth recovery [%]
25 | Cc1nc(Nc2cccc(C3CCCN3C(=O)CCc3nnc(C(C)C)o3)n2)sc1C (stereo unspecified) | 2.13
26 | COc1ccc2[nH]c3nc(SCC(=O)N(Cc4ccccc4)c4ccc(F)cc4)nnc3c2c1 | 11.5
27 | O=C1CCC(N2C(=O)c3cccc(N4CCC(C(=O)O)(c5ccccc5)CC4)c3C2=O)C(=O)N1 (stereo unspecified) | 8.04
28 | Cc1cnc(Nc2cccc(C3CCCN3C(=O)CCN(C)c3cccc(F)c3)n2)s1 (stereo unspecified) | -18.8
29 | CCC(=O)N1CCOC(c2cccc(Nc3nc(C)c(C)s3)n2)C1 (stereo unspecified) | 6.1
30 | COC1CCCC(C(=O)N2CCC(c3cccc(Nc4ncc(C)s4)n3)CC2)C1 (stereo unspecified) | -13
31 | CC(C)c1cnc(Nc2cccc(C3CN(C(=O)C4CCCCC4)CCO3)n2)s1 (stereo unspecified) | -2.9
32 | Cc1ccc(C(C)C)c(OCC(=O)Nc2ccc(S(=O)(=O)Nc3ccccn3)cc2)c1 | -1.57
33 | Cc1cnc(Nc2cccc(C3CN(C(=O)CCC4CCCCC4)CCO3)n2)s1 (stereo unspecified) | 7.2
34 | CCOc1ccc(C(=O)Nc2ccc(S(=O)(=O)Nc3nccc(C)n3)cc2)cc1OCC | 0.465
35 | COc1cc(NS(=O)(=O)c2ccc(Nc3nc(-c4ccc(C)c(C)c4)cs3)cc2)nc(OC)n1 | 0.29
36 | COc1ccc(N2C(=O)c3ccc(Oc4ccccc4)cc3C2=O)cc1 | -18.1
37 | Cc1ccc(S(=O)(=O)CC(=O)Nc2ccc(S(=O)(=O)Nc3ncccn3)cc2)cc1 | -0.045
38 | CC(C)Cc1nc2ccccc2n1CC(=O)N1CCC(Cc2cccc(Nc3nccs3)n2)CC1 | -1.89
39 | CCC(C)C(=O)Nc1ccc(S(=O)(=O)Nc2ncccn2)cc1 (stereo unspecified) | -4.26
40 | Cc1nc(Nc2cccc(C3CN(C(=O)c4cn5cccc(C)c5n4)CCO3)n2)sc1C (stereo unspecified) | 2.21
41 | CCNc1nc(NC(C)C)nc(NS(=O)(=O)c2ccc(N)cc2)n1 | 0.855
42 | COc1nccnc1NS(=O)(=O)c1ccc(NCc2ccccc2O)cc1 | -3.99
43 | CS(=O)(=O)NCC(=O)N1CCC(c2cccc(Nc3ncc(-c4ccccc4)s3)n2)CC1 | -20.5
44 | Cc1csc(Nc2cccc(C3CCCN3C(=O)COCCN3CCCC3=O)n2)n1 (stereo unspecified) | 1.94
45 | O=C(O)c1ccc(Oc2ccc3c(c2)C(=O)N(c2nccs2)C3=O)cc1 | 1.86
46 | NC(=O)CN1CCCC(c2csc(Nc3ccccn3)n2)C1 (stereo unspecified) | 3.12
47 | COc1ccccc1OCC(=O)Nc1ccc(S(=O)(=O)Nc2ncccn2)cc1 | 1.59
48 | Cc1cnc(Nc2cccc(C3CCN(C(=O)CN(C)C)CC3)n2)s1 | -13

Row | SMILES | relative growth recovery [%]
49 | COCCC(=O)N1CCC(c2cccc(Nc3ncc(C)s3)n2)CC1 | -3.65
50 | CC(=O)Nc1ccc(-c2csc(Nc3cccc(C)n3)n2)cc1 | 0.905
51 | O=C(O)CCOCCOCCNc1cccc2c1C(=O)N(C1CCC(=O)NC1=O)C2=O (stereo unspecified) | 4.37
52 | COc1cc(NS(=O)(=O)c2ccc(NS(=O)(=O)c3ccccc3)cc2)nc(OC)n1 | -5.07
53 | CCCOc1ccc(/C=C/C(=O)Nc2ccc(S(=O)(=O)Nc3ncccn3)cc2)cc1OC | -2.5
54 | Cc1cnc(Nc2cccc(C3CCN(C(=O)CCc4nc5ccccc5[nH]4)CC3)n2)s1 | -4.26
55 | COc1ccccc1CCC(=O)N1CCC(c2cccc(Nc3nc(C)cs3)n2)CC1 | 2.75
56 | Cc1cc(C)nc(NS(=O)(=O)c2ccc(NC(=O)CSc3nc(C)cc(C)c3C#N)cc2)n1 | -4.5
57 | Cc1cccc(OCC(=O)Nc2ccc(S(=O)(=O)Nc3cc(C)nc(C)n3)cc2)c1 | -1.38
58 | CCCOc1ccc(C(=O)Nc2ccc(S(=O)(=O)Nc3nc(C)cc(C)n3)cc2)cc1 | -2.85
59 | Cc1cc(C)cc(OCC(=O)Nc2ccc(S(=O)(=O)Nc3ncccn3)cc2)c1 | -0.16
60 | Cc1cnc(Nc2cccc(C(CO)C3CCN(C(=O)C4(NC(=O)OC(C)(C)C)CCCCC4)CC3)n2)s1 (stereo unspecified) | -3.12
61 | CCOCCC(=O)Nc1ccc(S(=O)(=O)Nc2ncccn2)cc1 | 0.59
62 | Cc1ccnc(NS(=O)(=O)c2ccc(NC(=O)c3ccc(Cl)cc3[N+](=O)[O-])cc2)n1 | -0.255
63 | Cc1cc(C)nc(NS(=O)(=O)c2ccc(NC(=O)c3ccc(Cl)cc3Cl)cc2)n1 | -0.215
64 | Cc1ccnc(NS(=O)(=O)c2ccc(NC(=O)Cc3ccc(Cl)cc3)cc2)n1 | 2.92
65 | O=C(CSc1nnc2c(n1)[nH]c1ccc(Cl)cc12)Nc1ccc(Cl)cc1 | 4.82
66 | CC(C)(C)OC(=O)N1CCOCC1C(=O)N1CCC(c2cccc(Nc3ncc(-c4ccccc4)s3)n2)CC1 (stereo unspecified) | -4.08
67 | CN(CCN1CCC(C(=O)O)CC1)c1cccc2c1C(=O)N(C1CCC(=O)NC1=O)C2=O (stereo unspecified) | 5.47
68 | Cc1cnc(Nc2cccc(C3CCN(C(=O)C4C5C=CC6(CN(C)C(=O)C46)O5)CC3)n2)s1 (stereo unspecified) | -3.56
69 | O=C(Nc1ccc(S(=O)(=O)Nc2ncccn2)cc1)c1ccc(Br)cc1 | 0.355
70 | CNC(=O)C1(c2cccc(Nc3ncc(C)s3)n2)CN(C(=O)Cn2c(CC(C)C)nc3ccccc32)CCO1 (stereo unspecified) | 2.15
71 | Cc1cnc(Nc2cccc(C3CCN(C(=O)C4(NC(=O)CC(C)C)CCCCC4)CC3)n2)s1 | -17.9
72 | CC(=O)Nc1ccc(S(=O)(=O)N(Cc2ccccc2)c2ccccn2)cc1 | 17.3

Row | SMILES | relative growth recovery [%]
73 | Cc1cnc(Nc2cccc(C3CCCN3CC(N)=O)n2)s1 (stereo unspecified) | -20.7
74 | CCOC(=O)c1ccc(N2C(=O)c3ccc(Oc4cccc(N)c4)cc3C2=O)cc1 | 0.65
75 | COc1cccc(OC)c1C(=O)Nc1ccc(S(=O)(=O)Nc2ncccn2)cc1 | -5.34
76 | Cc1csc(Nc2cccc(C3CCCN3C(=O)CCOc3ccccc3C)n2)n1 (stereo unspecified) | 11.5
77 | O=C1CCC(N2C(=O)c3ccc(N4CCC(C(=O)O)CC4)cc3C2=O)C(=O)N1 (stereo unspecified) | 1.72
78 | Cc1ccc(C(=O)Nc2ccc(S(=O)(=O)Nc3nc(C)cc(C)n3)cc2)cc1 | -2.35
79 | Cc1cc(C)nc(NS(=O)(=O)c2ccc(NC(=O)Nc3ccccc3)cc2)n1 | -3.6
80 | O=C(Nc1ccc(S(=O)(=O)Nc2ncccn2)cc1)c1cc(Cl)ccc1Cl | 0.76
81 | Cc1cc(C)nc(NS(=O)(=O)c2ccc(Nc3nc(-c4cccnc4)cs3)cc2)n1 | -1.15
82 | Cc1cnc(Nc2cccc(C3CN(C(=O)Cc4ccccc4)CCO3)n2)s1 (stereo unspecified) | -6.84
83 | C=CCc1cccc(CNc2ccc(S(=O)(=O)Nc3nccnc3OC)cc2)c1O | -2.75
84 | Cc1csc(Nc2cccc(C3CCN(C(=O)c4cnccn4)CC3)n2)n1 | 7.21
85 | Cc1cc(C)cc(OCC(=O)Nc2ccc(S(=O)(=O)Nc3cc(C)nc(C)n3)cc2)c1 | 0.995
86 | Cc1ccnc(NS(=O)(=O)c2ccc(NC(=O)Cc3c(F)cccc3Cl)cc2)n1 | -0.465
87 | CC(C)c1ccccc1OCC(=O)Nc1ccc(S(=O)(=O)Nc2ccccn2)cc1 | -2.54
88 | Cc1cnc(Nc2cccc(C3CCN(C(=O)C4CCCCC4C(=O)N4CCCC4)CC3)n2)s1 (stereo unspecified) | -17.5
89 | Cc1cc(NS(=O)(=O)c2ccc(NC(=O)c3ccccc3C)cc2)nc(C)n1 | -1.93
90 | CNc1cc(C(=O)N2CCOC(c3cccc(Nc4nc(C)c(C)s4)n3)C2)ccn1 (stereo unspecified) | 8.12
91 | O=C(CCC1CCCCC1)Nc1ccc(S(=O)(=O)Nc2ncccn2)cc1 | -4.24
92 | O=C1CCC(N2C(=O)c3cccc(O)c3C2=O)C(=O)N1 (stereo unspecified) | 2.45
93 | COc1cc(NS(=O)(=O)c2ccc(NC(=O)/C=C/c3ccco3)cc2)nc(OC)n1 | 1.19
94 | O=C(Nc1ccc(S(=O)(=O)Nc2ncccn2)cc1)c1ccc2c(c1)OCO2 | -3.11
95 | Cc1cc(NS(=O)(=O)c2ccc(NC(=O)COc3ccccc3Cl)cc2)nc(C)n1 | 3.46
96 | COc1cccc(C(=O)Nc2ccc(S(=O)(=O)Nc3cc(C)nc(C)n3)cc2)c1 | 0.84
